Data published in PubChem BioAssay AID1645882 (National Center for Advancing Translational Sciences (NCATS), 2021).
About 120 (0.75%) of roughly 16,000 compounds were called active. Not shown: some 4% with an inconclusive outcome. Calls follow the shape of the dose curve; as a rule, active = well fitted inhibition curve with a large enough effect; inconclusive = small, poorly fitted or top-dose-only effect; inactive = no such curve, though single readings can be large or run the other way. The list shows a part of the results. Where a structure was tested more than once in an assay, its records may differ in their call.

The compounds below were run against Rap guanine nucleotide exchange factor 3 (Homo sapiens) (UniProt O95398) (assay: Validation qHTS for antagonist of cAMP-regulated guanine nucleotide exchange factor 3 (EPAC1)). Details: EPAC1 Rap1B-BODIPY-GDP exchange, fluorescence; series mostly up to 150 µM; activity change, negative = inhibition: at the top concentration.
Description: Assay Provider (PI): Xiaodong Cheng Ph.D.
The University of Texas Medical Branch, […], TX
In multi-cellular eukaryotic organisms, the effects of cAMP are transduced by two ubiquitously-expressed intracellular cAMP receptors, the classic protein kinase A/cAMP-dependent protein kinase (PKA/cAPK) and the more recently discovered exchange protein directly activated by cAMP/cAMP-regulated guanine nucleotide exchange factor (EPAC/cAMP-GEF). Both PKA and EPAC are ubiquitously expressed in all tissues, and an increase in intracellular cAMP levels will lead to the activation of both PKA and EPAC. Therefore, careful dissections of the individual role and relative contribution of EPAC and PKA within the overall cAMP signaling in various model systems are critical for further elucidating the mechanism of cAMP signaling. To date no EPAC-specific antagonists and agonist, as well as isoform-specific agonists have been reported, and developing EPAC-specific pharmacological probes to determine the physiological functions that EPAC play in the overall cAMP-mediated signaling remains a major challenge within the research field. Furthermore, identified regulators of EPAC may lead to new mechanism-based therapeutic strategies specifically targeting the EPAC / cAMP-signaling components as EPAC has been implicated to play important roles in major human pathological conditions such as diabetes, heart disease, and cancer.
This qHTS will be used to screen the Molecular Libraries Small Molecule Repository (MLSMR) as a concentration-titration series using the NCGC unique quantitative screening (qHTS) platform to find activators for EPAC1. In addition, this assay will also be used as a counterscreen for the EPAC2 qHTS. This fluorescent based assay is developed and validated for EPAC1 that measures exchange using EPAC effector Rap1 complex with BODIPY-GDP, a GDP analog with a tethered fluorophores. Activators are identified by monitoring the change in fluorescence signal as the exchanged free BODIPY-GDP has a reduced fluorescence compared to Rap1-bound BODIPY-GDP. Increase in signal (activation) is the desired outcome for the EPAC1 agonist while no activity in this assay is desired for the EPAC2 agonist counterscreen.
[1] de Rooij, J., Zwartkruis, F. J., Verheijen, M. H., Cool, R. H., Nijman, S. M., Wittinghofer, A., and Bos, J.L. (1998) Nature 396, 474-477.
Briefly, three uL of reagents (100 nM EPAC1, 250 nM RAP1B-BODIPY-GDP, 50 uM GDP) were dispensed into a 1536-well Greiner black solid-bottom medium binding assay plate. Controls and test compounds (23 nL) were transferred to the plate via a Kalypsys pin tool equipped with a 1536-pin array. The plates were centrifuged at 1,000 rpm for 15 seconds followed by 5 minute incubation at room temperature. The assay plates were read at 5 minute intervals for 30 minutes in the ViewLux plate reader using 480nm excitation and 540nm emission filters. The results were normalized to the […] positive control ATA and DMSO.
Also: nearly all actives have a fitted effect of over 75% in size.
Potency is read from the fitted curve at half-maximal effect.

UniProt O95398, sequence (O95398 whole entry, looked up): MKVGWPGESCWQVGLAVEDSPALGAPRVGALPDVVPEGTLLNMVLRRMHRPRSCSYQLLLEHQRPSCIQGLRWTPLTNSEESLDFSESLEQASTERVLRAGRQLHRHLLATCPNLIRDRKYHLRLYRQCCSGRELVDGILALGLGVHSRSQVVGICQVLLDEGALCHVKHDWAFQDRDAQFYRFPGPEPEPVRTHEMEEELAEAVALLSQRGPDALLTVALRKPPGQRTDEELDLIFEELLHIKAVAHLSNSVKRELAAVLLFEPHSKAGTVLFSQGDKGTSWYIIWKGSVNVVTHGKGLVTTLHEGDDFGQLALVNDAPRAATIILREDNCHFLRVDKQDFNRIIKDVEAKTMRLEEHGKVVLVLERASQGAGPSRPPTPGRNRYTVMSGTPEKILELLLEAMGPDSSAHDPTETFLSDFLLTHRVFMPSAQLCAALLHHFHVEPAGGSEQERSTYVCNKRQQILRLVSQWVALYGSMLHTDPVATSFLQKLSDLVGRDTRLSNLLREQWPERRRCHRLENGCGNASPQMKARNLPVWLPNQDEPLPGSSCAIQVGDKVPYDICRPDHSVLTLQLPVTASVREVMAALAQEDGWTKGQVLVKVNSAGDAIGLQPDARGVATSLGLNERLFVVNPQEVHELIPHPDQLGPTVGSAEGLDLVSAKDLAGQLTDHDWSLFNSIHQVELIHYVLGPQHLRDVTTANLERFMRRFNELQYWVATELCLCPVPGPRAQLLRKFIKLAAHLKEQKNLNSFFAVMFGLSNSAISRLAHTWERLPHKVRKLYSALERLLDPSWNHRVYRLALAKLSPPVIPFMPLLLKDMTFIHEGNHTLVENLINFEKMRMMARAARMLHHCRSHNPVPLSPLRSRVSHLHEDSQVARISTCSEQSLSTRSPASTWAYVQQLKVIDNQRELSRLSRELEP

Compound	activity change, negative = inhibition	Potency
COc1cccc(N2[C@@H](CC(C)=O)c3ccccc3S2(=O)=O)c1	inactive: -4.28%	–
N#C/C(=C\c1ccc(O)c(O)c1)C(=O)Nc1ccccc1	–	active: 79.4 µM and inactive
COc1ccc([N+](=O)[O-])c2c1CCN2C(=O)CC[C@H](N)C(=O)O	inactive: 8.56%	–
CCN(CC)Cc1ccc(Nc2ccnc3cc(Cl)ccc23)cc1O	inactive: 0.981%	–
CC1(C)C(=O)C2C[C@]3(O)C4=CC(=O)OC(c5ccoc5)[C@]4(C)CCC3[C@](C)(C2=O)C1CC(=O)O (stereo partly specified)	inactive: 11.7%	–
CO/N=C(\C(=O)N[C@@H]1C(=O)N2C(C(=O)O)=CCS[C@H]12)c1csc(N)n1	inactive: 18.9%	–
O=C1NC(=O)C(c2ccccc2[N+](=O)[O-])=C1Nc1ccc(O)c(Cl)c1	inactive	–
CC(=O)c1ccccc1-c1ccc2c(c1)CC(CNC(=O)c1cc(C)on1)O2 (stereo unspecified)	inactive: 5.97%	–
CC(C)Cc1nc2cc(NS(=O)(=O)N(C)C)cc(C(=O)N3CCc4sccc4C3)c2n1C	inactive: 2.86%	–
Cc1c(C(=O)NCc2ccc(F)cc2)sc2ncnc(NCC3CCCO3)c12 (stereo unspecified)	inactive: 13.1%	–
O=C(O)[C@H]1CCCN1	inactive: 13.8%	–
COC(=O)N1CCC2(CCCN(C(=O)Nc3cccc(C#N)c3)C2)CC1	inactive: 35.7%	–
CCCc1ncc(C[n+]2ccccc2C)c(N)n1	inactive	–
N#Cc1cccc(NC(=O)N2CC[C@@]3(CCCNC3)C2)c1	inactive: -10.3%	–
CS(=O)(=O)N1CCC2(CC1)CN(Cc1cc(C(F)(F)F)cc(C(F)(F)F)c1)C2	inactive: 5.53%	–
CCCCCCCCCCCCCCCC(=O)NCC(COP(=O)([O-])OCC[N+](C)(C)C)OCC (stereo unspecified)	inactive: -7.94% [at 75.8 µM]	–
COc1ncc2nc(-c3cn(C)c4ccccc34)c(=O)n(-c3ccccc3)c2n1	inactive: 3.63%	–
Cc1nc2cnc(N(C)C)nc2n(-c2ccccc2)c1=O	inactive: -2.05%	–
Cc1cc(C)nc(S[C@@H]2C[C@@H](C(=O)N3CCCN(C)CC3)N(Cc3cc(F)ccc3F)C2)n1	inactive: 10.4%	–
CC=C1C2C=C(C)CC1(N)c1ccc(=O)[nH]c1C2 (stereo unspecified)	inactive: 35.3%	–
COCCNc1nc(-c2ccc(C(=O)N(C)C)cc2)nc2ccccc12	inactive: 8.34%	–
CCCCCCCC/C=C\C/C=C\C/C=C\CCCC(=O)NCCO	inactive: 24.1% [at 15.3 µM]	–

Compound	activity change, negative = inhibition	Potency
COC(=O)c1ccc(CN2CCC3(CCC(CNC(=O)c4ccco4)O3)CC2)cc1 (stereo unspecified)	inactive: -14.2%	–
CN(C)C=Nc1c(I)cc(I)c(CCC(=O)O)c1I	inactive: 10.3%	–
O=C(O)c1c(C(=O)O)c2ccccc2[nH]c1=O	inactive: 10.2%	–
CC(C)NC[C@H](O)c1ccc(NS(C)(=O)=O)cc1	inactive: 1.42%	–
CC(=O)N1CCC2(CCN(Cc3ccccc3)CC2)CC1	inactive: 22.5%	–
Cc1ncc2c(c1CNC(=O)c1ccc3c(c1)OCO3)CCN(C(=O)c1cnsn1)C2	inactive: 3.63%	–
Cc1cccc(CNc2ncncc2-c2ccc(C(=O)N(C)C)cc2)c1	inactive: 0.33%	–
CC1(C)CCC(NC(=O)[C@@H](N)CCC(=O)O)CC1	inactive	–
CS(=O)(=O)N1CCC2(CCN(c3ccncc3)CC2)CC1	inactive: 13.4%	–
NCCn1oc(=O)[nH]c1=O	inactive: 17.8%	–
Nc1ncnc2c1ncn2C1CC(O)C(CO)O1 (stereo unspecified)	inactive	–
COCCn1c(=O)c(-c2ccc(F)cc2)nc2cnc(Nc3cccc(OC)c3)nc21	inactive: 20.9%	–
Fc1ccc(C(c2ccc(F)cc2)N2CCN(CC=Cc3ccccc3)CC2)cc1	inactive: -12.8%	–
CCN(CC)CCNC(=O)c1cnn(-c2nccc(-c3cc4ccccc4o3)n2)c1C	inactive: 19.7%	–
O=C(c1cccc(F)c1)N1CCC2(CCCN(Cc3ccccc3)C2)CC1	inactive: -2.96%	–
NC(N)=NN=Cc1c(Cl)cccc1Cl	inactive: 14%	–
O=C(O)C1CCNCC1	inactive: 9.43% [at 75.8 µM]	–
CC(=O)OCC(=O)NCCCOc1cccc(CN2CCCCC2)c1	inactive	–
O=[N+]([O-])c1ccc(C=C2c3ccccc3-c3ccccc32)cc1	inactive: 14.7%	–
CS(=O)(=O)c1ccc(-c2nc(-c3ccc(F)cc3)c(-c3ccncc3)[nH]2)cc1	inactive: 20.4% [at 201 µM]	–
CCn1cc(C(=O)O)c(=O)c2cc(F)c(N3CCNCC3)nc21	inactive	–
COC(=O)[C@H]1[C@H]2CC3c4[nH]c5ccccc5c4CCN3C[C@@H]2CC[C@@H]1O (stereo partly specified)	inactive: 18.4%	–

Compound	activity change, negative = inhibition	Potency
CCCCc1c(C)nc2c(OC)cccc2c1SCC(=O)O	inactive: 17.1%	–
COCc1c(C(=O)NC2CCOC(C)(C)C2)cnn1-c1nccc(-c2cccs2)n1 (stereo unspecified)	inactive: 18.6%	–
O=S1(=O)CCOC[C@H](CC2CCCCC2)N1Cc1ccccc1Br	inactive: -18.4%	–
CC1(C)CCC=[N+]1[O-]	inactive: 11.1% [at 75.8 µM]	–
COC(=O)C1=C(C)NC(COC(N)=O)=C(C(=O)OC(C)C)C1c1cccc(Cl)c1Cl (stereo unspecified)	inactive: -11.5%	–
Cc1ccccc1-c1cncnc1Nc1ccc(F)cc1	inactive: -17.6%	–
CC(=O)N[C@@H](Cc1ccc(O)cc1)C(=O)O	inactive: 17.9%	–
OC[C@@H](O)[C@@H](O)[C@H](O)[C@H](O)CO	inactive: 14.5%	–
C=CCc1ccc(O)c(OC)c1	inactive	–
CNc1ncnc2ccc(-c3cccc(OC)c3)cc12	inactive: 0.0806%	–
CS(=O)(=O)Nc1cccc(-c2nc(NCc3cccs3)c3ccccc3n2)c1	inactive: -14.7%	–
COc1ccc(NC(=O)N2CC3(CCN(C(=O)c4cccn4C)CC3)C2)cc1	inactive: 5.96%	–
Cc1noc(C)c1C(=O)N1CCC2(CCCN(Cc3ccccc3)C2)CC1	inactive: 15.4%	–
CCCCN1C[C@H](O)[C@@H](O)[C@H](O)[C@H]1CO	inactive: 9.02%	–
CCn1c(-c2ccccc2F)nc2cc(C(=O)NCc3ccc(C)o3)cc(NC(C)=O)c21	inactive: 10.6%	–
C[C@@H]1C(=O)O[C@H]2[C@@H](O)[C@@]34[C@H]5CC(C(C)(C)C)[C@]36[C@@H](OC(=O)[C@@H]6O)O[C@@]4(C(=O)O5)[C@@]12O (stereo partly specified)	inactive: 9.45%	–
O=C(c1ccc2[nH]ccc2c1)N1CCOc2ccc(CN3CCN(c4ccccn4)CC3)cc2C1	inactive: 11.2%	–
CN1CCN(c2ncc3nc(CCc4ccccc4)c(=O)n(Cc4cccs4)c3n2)CC1	inactive: -18%	–
c1ccc2c(c1)CCCC2C1=NCCN1 (stereo unspecified)	inactive	–
COc1cccc(CCc2ccccc2OCC(CN(C)C)OC(=O)CCC(=O)O)c1 (stereo unspecified)	inactive: 18.3%	–
CNc1ncnc2c1ncn2[C@@H]1O[C@H](CO)[C@@H](O)[C@H]1O	inactive	–
CC(C)C[C@H](NC(=O)[C@@H](Cc1c[nH]c2ccccc12)NC(=O)[C@H](Cc1ccc(O)cc1)NC(=O)[C@H](CO)NC(=O)[C@H](Cc1c[nH]c2ccccc12)NC(=O)[C@H](Cc1cnc[nH]1)NC(=O)[C@@H]1CCC(=O)N1)C(=O)N[C@@H](CCCN=C(N)N)C(=O)N1CCC[C@@H]1C(=O)NCC(N)=O	inactive: 20.5%	–
